Reference: ChEMBL document CHEMBL4888484, “Replenishing the malaria drug discovery pipeline: Screening and hit evaluation of the MMV Hit Generation Library 1 (HGL1) against asexual blood stage Plasmodium falciparum ,using a nano luciferase reporter read-out” (2022)
About 540 (0.36%) of roughly 150,000 compounds showed an effect of 50% or more. Some of the results follow.

Test system: Plasmodium falciparum
Assay: Primary screen in NF54 nanoGlo assay, in single point, at 2uM, 72h; a lower Z score goes with more inhibition
Format: functional, Erythrocyte
Conditions: timepoint 72 hour

SMILES	% Inhibition [%]	Z score
CCCc1ccc(CC(C)CN2CCOC(c3nnc(C)o3)C2)cc1 (stereo unspecified)	-7	1.39
O=C(NCc1ccncc1)C1CC=CCC1c1nc2ccccc2s1 (stereo unspecified)	-7	0.87
CCCCOCC(=O)NCc1ccc(C(=O)N(C)C)o1	-2	0.32
O=C(CCc1cc2n(n1)CCN(Cc1ccsc1)C2)N1CCCC1	-11	1.45
O=C(NCCO)Nc1ccc(Br)cc1OC(F)(F)F	-13	1.34
Cc1cc(C)cc(-n2nc(CC(N)=O)nc2-c2ncoc2C)c1	-19	2.94
Cc1nn(C)c(C)c1CCOC(=O)c1ccc(N2CCCC2)nc1	-2	0.16
CO[C@H]1CCN(C(=O)c2ccc3c(c2)OCC(=O)N3)C1	30	-3.43
c1ccc(Cn2ncc3[nH]c(-c4ccccc4OCCN4CCOCC4)nc32)cc1	-5	0.67
CCc1nc(N(CCC(=O)NC(C)C)Cc2ccco2)c2cc(Cl)cc(Cl)c2n1	-6	0.89
Fc1ccc(OCCn2ccnn2)c(Cl)c1	-4	0.44
Cc1csc(-c2cnc(C)n(C)c2=O)n1	12	-1.58
CCc1cc(NCc2cc3c(nc2OC)CN(C2CCCC2)C3=O)ncn1	-2	0.33
O=C(CCS(=O)(=O)c1ccc(Cl)cc1)NCCc1ccc(Cl)cc1	17	-2.03
CN(C)c1ccc(-c2noc(CCNC(=O)c3ccco3)n2)cc1	-3	0.53
C[C@@H](C(=O)N(Cc1cc(F)ccc1F)C1CCCC1)S(C)(=O)=O	10	-1.42
O=C([C@H]1CCCN(c2ncnc3c2nc2n3CCCCC2)C1)N1CCN(c2ccccc2)CC1	-11	1.77
CC1(CO)CCN(C(=O)Nc2ccccc2OC[C@H]2CCCCO2)CC1	-8	1.66
CC(=O)N1CCC(C(=O)N2CCCO[C@@H](Cn3cccn3)C2)CC1	-29	2.97
Cc1ccc(C)c(S(=O)(=O)N(CCCc2ccccc2)CCS(=O)(=O)N2CCNCC2)c1	-7	0.79
CCc1cc(CNC2CC3(CCN(C(=O)OC(C)(C)C)CC3)C2)on1	16	-1.99
CC(C)c1ccc(Cc2nnc(Nc3cccnc3)[nH]c2=O)cc1	-7	0.85

SMILES	% Inhibition [%]	Z score
Cc1nc([C@H](C)NC(=O)Nc2c(-c3ccccc3)cnn2C(C)(C)C)n[nH]1	-9	1.03
Cc1ccc(S(=O)(=O)C(C#N)c2nc3ccccc3nc2N2CC(C)CC(C)C2)cc1 (stereo unspecified)	-9	0.82
Cc1nn(C)c(C)c1CC(=O)Nc1ccc2nscc2c1	1	-0.16
O=c1cc(C2CCN(Cc3cccn3-c3ccc(Cl)cn3)CC2)nc[nH]1	-2	0.22
CCOc1ccc(Br)cc1NC(=O)NC[C@H]1CCOC1	-10	0.91
CCCC(NC(=O)N1CCC(F)(CO)C1)C1CCCCC1 (stereo unspecified)	4	-0.38
CCOc1cccc(C(C)NC(C)C(=O)NC(=O)NC)c1 (stereo unspecified)	-1	0.11
COC(=O)N(C)CC(=O)NCc1ccccn1	-17	3.15
CCn1cc(CNC(=O)N2CC[C@H](CO)C2)cn1	0	0.01
COc1ccc(CN2C[C@@H](F)[C@@H](OCc3nc4ncccc4[nH]3)C2)cc1	30	-3.38
Cc1nc(O)cc(CNC(=O)[C@H](C)n2cc(Cl)cn2)n1	0	0.04
C[C@H]1Cc2cc(S(=O)(=O)N(C)C)cc(Cl)c2O1	-4	0.76
CCN(CCN(C)C)c1cc([C@H]2CCOC2)nc(N2CC(O)C2)n1	7	-0.91
O=C(Cn1nc2n(c1=O)C(=O)N(c1ccccc1)C2)NCc1ccccn1	-3	0.51
Cc1nnsc1CN(C)C(=O)C1=NNC(=O)CC1	-8	1.16
Cc1cc(CCC(=O)N2CCNC(=O)C[C@H]2c2ccccc2)no1	-11	1.68
COc1ccc(C)cc1NC(=O)Cn1c(N2CCCCC2)nc(C)cc1=O	-12	1.24
O=C(NCCOc1ccccc1)c1ccc(S(=O)(=O)N2CCOCC2)cc1	-15	1.69
COC1CCN(C2CN(C(=O)CNC(=O)OCc3ccccc3)C2)CC1	-11	1.56
CC(C)C(=O)N1CCC([C@@H]2CN(C(=O)c3ccccc3)C[C@H]2CO)CC1	-18	2.09
CN(C[C@@H]1CCCN2CCCC[C@H]12)C(=O)Cc1c[nH]c2ccccc12	-1	0.06
